Results taken from the BET-seq Pho4 binding data (Le et al. 2018).
Some of the results follow. The energies were worked out here from pooled read counts, against the library average; single values are noisy.

biological target: T1, Pho4 (S. cerevisiae) (UniProt P07270); experiment: relative binding free energy (BET-seq); higher = weaker binding; details: reference: library average
T1 sequence: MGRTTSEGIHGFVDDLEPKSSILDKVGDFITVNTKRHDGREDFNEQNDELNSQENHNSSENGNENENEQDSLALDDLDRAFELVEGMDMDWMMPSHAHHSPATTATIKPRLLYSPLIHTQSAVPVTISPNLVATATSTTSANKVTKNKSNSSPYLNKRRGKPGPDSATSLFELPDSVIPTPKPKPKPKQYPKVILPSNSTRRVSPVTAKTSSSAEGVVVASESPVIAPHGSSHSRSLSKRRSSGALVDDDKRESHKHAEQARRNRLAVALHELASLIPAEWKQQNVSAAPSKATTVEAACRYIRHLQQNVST

Sequence | relative binding free energy
TAGTACACGTGGTTTC | 0.09 kcal/mol
GGTAGCACGTGTAAGG | 0.04 kcal/mol
GATTGCACGTGGTCTG | -0.08 kcal/mol
TTGTACACGTGCTGTG | -0.01 kcal/mol
TTGTGCACGTGCTGAT | -0.12 kcal/mol
AGGGACACGTGGGTCA | -0.11 kcal/mol
TAGACCACGTGGGGGA | -0.21 kcal/mol
AATAGCACGTGCTGGT | -0.19 kcal/mol
AGGCGCACGTGTAGGA | -0.1 kcal/mol
GCAATCACGTGGTGTA | 0.13 kcal/mol
TTGATCACGTGTGACT | 0.27 kcal/mol
TTAGGCACGTGCATGT | -0.17 kcal/mol
ATGGGCACGTGTTAAG | -0.08 kcal/mol
AGATGCACGTGGTGGT | -0.15 kcal/mol
ACAGTCACGTGTTTTT | 0.09 kcal/mol
AGGGTCACGTGTAGTC | 0.15 kcal/mol
TTAAACACGTGACAGG | 0.28 kcal/mol
GGGGCCACGTGCGGGT | -0.22 kcal/mol
CTGTGCACGTGTTACG | 0.07 kcal/mol
TCGGTCACGTGCTGTT | 0 kcal/mol
GAACGCACGTGGGTGA | -0.14 kcal/mol
CCTTTCACGTGGGGGA | 0.08 kcal/mol
AGCATCACGTGGGTGG | 0.05 kcal/mol
GCGAGCACGTGGGTAT | -0.16 kcal/mol
CTGAACACGTGTGGGG | 0.11 kcal/mol

Sequence | relative binding free energy
CTAGGCACGTGTGAGG | -0.03 kcal/mol
CGGGGCACGTGTTATG | -0.02 kcal/mol
CGTGGCACGTGATAAT | 0.11 kcal/mol
TTAATCACGTGAGGCT | 0.43 kcal/mol
ATGTTCACGTGTCGGG | 0.26 kcal/mol
GCTTGCACGTGGGAGT | -0.06 kcal/mol
GTTTTCACGTGGCATA | 0.08 kcal/mol
TGAGTCACGTGACGTG | 0.08 kcal/mol
GATTACACGTGTAAGG | 0.16 kcal/mol
TAGGTCACGTGATGAG | 0.16 kcal/mol
AGTGACACGTGGGGTT | -0.09 kcal/mol
GTCGCCACGTGTAGTT | 0.15 kcal/mol
CGGGTCACGTGGCGGG | 0.02 kcal/mol
ATCAGCACGTGGGGCT | -0.13 kcal/mol
TTTGTCACGTGATGAC | 0.18 kcal/mol
TTGCGCACGTGTGTCT | -0.18 kcal/mol
GGGTCCACGTGTTGGA | 0.11 kcal/mol
TATGTCACGTGTGATC | 0.24 kcal/mol
GGTCGCACGTGGGGAT | -0.11 kcal/mol
AGCTGCACGTGGTGGA | -0.22 kcal/mol
TTGGTCACGTGCGTGT | 0.06 kcal/mol
GTAAACACGTGGTTAG | -0.08 kcal/mol
ATTTGCACGTGACATG | -0.04 kcal/mol
TTGCACACGTGCTGGT | 0.03 kcal/mol
TAAGGCACGTGGTATA | -0.36 kcal/mol

Sequence | relative binding free energy
GATAGCACGTGGACGG | 0.1 kcal/mol
TGGTGCACGTGAATTG | 0.24 kcal/mol
TTTTACACGTGCGGTT | 0.08 kcal/mol
GGGTGCACGTGGGCCA | -0.22 kcal/mol
AGTTTCACGTGGAACA | 0.44 kcal/mol
TTAAACACGTGTTAGT | 0.05 kcal/mol
TGATGCACGTGTTGCT | -0.12 kcal/mol
TTTTTCACGTGAATCG | 0.29 kcal/mol
AATAGCACGTGTGCTG | -0.08 kcal/mol
AGACACACGTGTGTGG | -0.02 kcal/mol
GGTGGCACGTGGGACT | -0.09 kcal/mol
GAGAGCACGTGTTTTG | 0.08 kcal/mol
TAAGGCACGTGGTGAC | -0.13 kcal/mol
GGGGCCACGTGGGTAA | -0.11 kcal/mol
TGTTTCACGTGGATGG | 0.36 kcal/mol
AGGGCCACGTGGTAGA | -0.15 kcal/mol
TAAAACACGTGGTGTG | -0.11 kcal/mol
TGTTGCACGTGCGGGC | -0.11 kcal/mol
AGTCTCACGTGGGGTT | 0.2 kcal/mol
CTGTGCACGTGGGTTG | -0.08 kcal/mol
GTGGGCACGTGAGTAC | 0.24 kcal/mol
CATGGCACGTGCAGGT | -0.2 kcal/mol
GCGGTCACGTGCGGTG | 0.13 kcal/mol
GGCGGCACGTGGGATA | 0.02 kcal/mol
GTTGGCACGTGGTTTG | -0.06 kcal/mol

Sequence | relative binding free energy
AGTGTCACGTGAGCTT | 0.31 kcal/mol
ATTTTCACGTGACTTT | 0.25 kcal/mol
AAGGTCACGTGCGGTT | 0.08 kcal/mol
TTATTCACGTGTCCGG | 0.18 kcal/mol
TTAGGCACGTGGATAG | 0.05 kcal/mol
AATTGCACGTGGTGTT | -0.07 kcal/mol
TCCGGCACGTGGGAGG | -0.24 kcal/mol
GGTGTCACGTGGCTCA | 0.17 kcal/mol
TTTGGCACGTGTCTGA | -0.11 kcal/mol
AGTTTCACGTGTCTTG | 0.28 kcal/mol
CAATACACGTGTGTGG | 0.08 kcal/mol
GTTTTCACGTGTGAAG | 0.34 kcal/mol
TGGAACACGTGTATGG | -0.01 kcal/mol
GGGGACACGTGGGGAC | -0.1 kcal/mol
GTTGCCACGTGTGGGT | 0 kcal/mol
GTGGGCACGTGTGATA | 0.06 kcal/mol
TTCTGCACGTGTGGTT | 0.14 kcal/mol
TAGGACACGTGTAGGC | 0.18 kcal/mol
AGTATCACGTGAAGAG | 0.33 kcal/mol
TATGTCACGTGGAAAG | 0.17 kcal/mol
ATTTTCACGTGTGCAT | 0.23 kcal/mol
TGTAGCACGTGTTGCC | -0.01 kcal/mol
TGTTGCACGTGTGTAG | 0.02 kcal/mol
CGGGGCACGTGGAAGC | -0.07 kcal/mol
AGGAACACGTGGGGAA | -0.03 kcal/mol

Sequence | relative binding free energy
AAAGTCACGTGCGTGG | 0.1 kcal/mol
TCATACACGTGTGGGT | 0.07 kcal/mol
GTGTACACGTGTGGCG | 0.05 kcal/mol
TAAGTCACGTGTCTTT | 0.05 kcal/mol
AGTTGCACGTGGTTCA | -0.15 kcal/mol
CGCTGCACGTGGGTGT | -0.2 kcal/mol
TTGGACACGTGAGGTT | 0.24 kcal/mol
TTTGTCACGTGTAATG | 0.06 kcal/mol
ATGTACACGTGCTGGC | 0.17 kcal/mol
CAGTACACGTGGGGGT | -0.11 kcal/mol
GGTCGCACGTGAGAGG | 0.2 kcal/mol
TATGTCACGTGAAGAT | 0.2 kcal/mol
GAGGTCACGTGAGAGT | 0.23 kcal/mol
GCTTACACGTGGTTGT | -0.06 kcal/mol
TTGGGCACGTGGAAAC | 0.06 kcal/mol
GTTTACACGTGTTCTT | 0.15 kcal/mol
TATGACACGTGCGGAG | 0 kcal/mol
TGGTTCACGTGTACAA | 0.22 kcal/mol
TGTGACACGTGGCGCG | -0.12 kcal/mol
CATATCACGTGAAGGG | 0.43 kcal/mol
AGTGGCACGTGGTGAT | -0.18 kcal/mol
TTGATCACGTGGTACG | -0.02 kcal/mol
TTAAGCACGTGTGGGC | 0.1 kcal/mol
TTATTCACGTGTGTGA | 0.23 kcal/mol
TGCATCACGTGTTGAG | 0.19 kcal/mol

Sequence | relative binding free energy
GTCGTCACGTGTGGAG | 0.14 kcal/mol
GTGATCACGTGTATGA | 0.15 kcal/mol
TTCGACACGTGGTATT | -0.05 kcal/mol
TACGTCACGTGGGTGT | -0.2 kcal/mol
GTAGGCACGTGTCTTT | 0.01 kcal/mol
GGTCTCACGTGTAGTT | 0.28 kcal/mol
TAGAGCACGTGAGGGG | -0.05 kcal/mol
GGCGTCACGTGTTTCG | 0.21 kcal/mol
CGGGGCACGTGACGGG | -0.04 kcal/mol
AAGGTCACGTGAATGG | 0.24 kcal/mol
GGTAACACGTGTTATG | 0.02 kcal/mol
GTTGGCACGTGCGATG | -0.02 kcal/mol
GTATGCACGTGGACAG | -0.01 kcal/mol
TGAGTCACGTGCGTGG | -0.01 kcal/mol
TAGTTCACGTGATAAT | 0.56 kcal/mol
TGTTACACGTGGGAGC | -0.01 kcal/mol
GTGTACACGTGCGCGT | -0.02 kcal/mol
AGAAACACGTGGTGAG | -0.06 kcal/mol
TTCTTCACGTGGTCTT | 0.23 kcal/mol
AGGATCACGTGGTGGT | 0.18 kcal/mol
TTATACACGTGGTCGG | -0.13 kcal/mol
